Laboratory results published in PubChem BioAssay AID504333 (National Center for Advancing Translational Sciences (NCATS), 2011).
Hit rate of the full screen: of about 360,000 compounds, about 16,000 (4.4%) were called active. Inconclusive results, whose numbers are uncertain, are shown with a selection of clear calls. Calls follow the shape of the dose curve; as a rule, active = well fitted inhibition curve with a large enough effect; inconclusive = small, poorly fitted or top-dose-only effect; inactive = no such curve, though single readings can be large or run the other way. Where the call is inconclusive, the potency comes from a doubtful curve fit.

Target: Bromodomain adjacent to zinc finger domain protein 2B (Homo sapiens) (UniProt Q9UIF8)
UniProt Q9UIF8, sequence (Q9UIF8 whole entry, looked up, the tested form may be a part): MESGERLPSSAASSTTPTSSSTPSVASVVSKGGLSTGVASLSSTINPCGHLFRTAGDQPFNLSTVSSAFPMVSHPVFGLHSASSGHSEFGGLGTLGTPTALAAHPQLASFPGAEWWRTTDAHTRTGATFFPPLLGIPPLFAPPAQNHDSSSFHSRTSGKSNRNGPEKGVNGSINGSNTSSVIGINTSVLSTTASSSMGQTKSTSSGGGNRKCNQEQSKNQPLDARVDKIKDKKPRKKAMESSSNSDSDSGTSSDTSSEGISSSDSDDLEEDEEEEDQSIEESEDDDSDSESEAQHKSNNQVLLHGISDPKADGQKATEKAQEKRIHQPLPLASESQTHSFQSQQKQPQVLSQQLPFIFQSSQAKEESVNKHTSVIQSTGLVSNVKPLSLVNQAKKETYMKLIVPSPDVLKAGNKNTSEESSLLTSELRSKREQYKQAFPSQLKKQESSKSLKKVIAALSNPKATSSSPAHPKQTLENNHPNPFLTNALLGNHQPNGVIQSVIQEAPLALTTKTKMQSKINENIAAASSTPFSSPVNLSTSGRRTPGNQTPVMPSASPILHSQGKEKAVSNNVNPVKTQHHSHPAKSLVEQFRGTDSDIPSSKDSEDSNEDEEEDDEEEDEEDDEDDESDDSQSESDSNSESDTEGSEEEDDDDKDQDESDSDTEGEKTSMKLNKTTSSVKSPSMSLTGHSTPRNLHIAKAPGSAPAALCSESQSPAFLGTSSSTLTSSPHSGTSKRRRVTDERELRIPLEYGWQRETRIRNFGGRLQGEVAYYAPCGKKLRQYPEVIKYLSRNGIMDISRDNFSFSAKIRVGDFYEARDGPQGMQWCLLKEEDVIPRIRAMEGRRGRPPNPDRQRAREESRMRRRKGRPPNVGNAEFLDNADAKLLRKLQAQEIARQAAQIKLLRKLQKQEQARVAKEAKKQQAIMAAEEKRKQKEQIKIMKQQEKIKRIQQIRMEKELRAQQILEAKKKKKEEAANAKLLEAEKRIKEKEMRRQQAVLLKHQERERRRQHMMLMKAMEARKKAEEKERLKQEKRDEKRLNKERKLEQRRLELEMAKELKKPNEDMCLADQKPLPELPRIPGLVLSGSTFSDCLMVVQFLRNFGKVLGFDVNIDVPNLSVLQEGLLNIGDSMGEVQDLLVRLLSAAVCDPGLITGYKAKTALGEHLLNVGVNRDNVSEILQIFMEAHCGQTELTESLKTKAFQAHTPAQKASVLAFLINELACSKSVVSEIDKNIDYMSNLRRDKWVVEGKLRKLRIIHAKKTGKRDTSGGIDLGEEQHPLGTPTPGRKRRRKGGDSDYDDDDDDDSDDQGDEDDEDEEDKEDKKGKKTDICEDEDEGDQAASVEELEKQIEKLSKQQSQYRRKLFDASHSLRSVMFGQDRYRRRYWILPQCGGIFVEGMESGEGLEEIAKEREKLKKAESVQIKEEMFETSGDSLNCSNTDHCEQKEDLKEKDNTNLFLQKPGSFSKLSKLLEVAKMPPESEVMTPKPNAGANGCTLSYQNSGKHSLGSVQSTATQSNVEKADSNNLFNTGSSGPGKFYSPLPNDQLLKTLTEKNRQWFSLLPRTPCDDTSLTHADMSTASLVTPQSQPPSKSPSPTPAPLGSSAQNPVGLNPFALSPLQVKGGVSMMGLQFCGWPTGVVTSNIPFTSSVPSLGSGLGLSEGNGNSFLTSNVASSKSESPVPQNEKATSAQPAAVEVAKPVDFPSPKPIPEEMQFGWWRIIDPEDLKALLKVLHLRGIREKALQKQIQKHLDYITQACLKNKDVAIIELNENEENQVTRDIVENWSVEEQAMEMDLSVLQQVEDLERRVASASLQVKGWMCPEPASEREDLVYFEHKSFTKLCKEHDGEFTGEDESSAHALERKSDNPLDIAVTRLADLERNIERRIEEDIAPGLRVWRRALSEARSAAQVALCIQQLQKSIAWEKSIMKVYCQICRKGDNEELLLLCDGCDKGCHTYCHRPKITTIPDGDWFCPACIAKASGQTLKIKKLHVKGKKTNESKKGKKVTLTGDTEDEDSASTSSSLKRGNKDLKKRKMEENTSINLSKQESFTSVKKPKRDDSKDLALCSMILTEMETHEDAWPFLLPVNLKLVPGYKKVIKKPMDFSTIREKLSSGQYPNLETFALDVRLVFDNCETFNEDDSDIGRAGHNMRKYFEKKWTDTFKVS
Assay: qHTS Assay for Inhibitors of BAZ2B; also: nearly all actives have a fitted effect of over 60% in size
Settings: AlphaScreen BAZ2B-H3K14Ac peptide displacement; series mostly up to 114 µM
Outline: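 Complex of BAZ2B and biotin-H3K14Ac (50 nM apiece) forms over 30 min at RT, then faces library compounds up to 110 uM for another 30 min; AlphaScreen beads added, 20 min dark incubation, luminescence read.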
Potency is read from the fitted curve at half-maximal effect; tags tell the direction and shape of the fitted curve.

Q: How did the Potency turn out when `Cc1cc(C)c(OCC(=O)N(Cc2ccc(N(C)C)cc2)CC2CCCO2)c(C)c1` (stereo not given) was run?
A: active: 28.2 µM

Q: How did the Potency turn out when `O=C(CSc1nnc(-c2ccccc2)c(-c2ccccc2)n1)NCCc1ccccc1` was run?
A: inconclusive: 22.4 µM [inhibitor, full curve]

Q: With `Cc1cc(-c2ccccc2)nc(=O)[nH]1` as the molecule, how does the Potency read?
A: inconclusive: 100 µM [inhibitor, single point]

Q: For `CC1Cc2ccccc2N1C(=O)COc1ccc2c(c1)OCO2` (stereo not given), which Potency is on record?
A: inconclusive: 56.2 µM [inhibitor, single point]

Q: With `Cc1c(CNC2CCC(C)CC2)c(C(=O)O)c(C)n1Cc1ccc(Cl)cc1` (stereo not given) as the molecule, how does the Potency read?
A: inconclusive: 79.4 µM [inhibitor, single point]

Q: With `S=C1NC[C@H](CC2CCCCC2)N1CCc1cccc2ccccc12` as the molecule, how does the Potency read?
A: inconclusive: 50.1 µM [inhibitor, partial curve]

Q: For `O=C(c1ccc(Br)cc1)c1cc2ccc(O)cc2oc1=O`, which Potency is on record?
A: inactive

Q: For `O=C(O)c1cc(NN=Nc2cccc(S(=O)(=O)O)c2)cc([N+](=O)[O-])c1`, which Potency is on record?
A: inactive

Q: Which Potency does the source give for `CON/C=C(\C=Nc1ccc(C(F)(F)F)cc1)c1ncc(C(F)(F)F)cc1Cl` here?
A: inconclusive: 79.4 µM [inhibitor, single point]

Q: How did the Potency turn out when `CCc1cccc2c(C(=O)COC(=O)c3ccc([N+](=O)[O-])s3)c[nH]c12` was run?
A: inconclusive: 28.2 µM [inhibitor, full curve]

Q: With `O=C(O)CNC(=O)c1ccc(Oc2c(F)c(F)c(Oc3ccc(C(=O)NCC(=O)O)cc3)c(F)c2F)cc1` as the molecule, how does the Potency read?
A: inactive

Q: With `O=C(CSc1nc(-c2ccccc2)nc2ccc(F)cc12)Nc1ccc(C(=O)O)cc1` as the molecule, how does the Potency read?
A: active: 50.1 µM

Q: For `COc1ccccc1N/C(=N/S(=O)(=O)c1ccc(C)cc1)c1ccc(Cl)cc1`, which Potency is on record?
A: inactive

Q: Which Potency does the source give for `O=C(C1=C(O)C(=O)N(CCN2CCOCC2)C1c1cccc(O)c1)c1cc2ccccc2o1` (stereo not given) here?
A: inconclusive: 70.8 µM [inhibitor, single point]

Q: `Cc1cc(C=O)c(C)n1-c1cc(C(=O)O)cc(C(=O)O)c1` was tested. Which Potency did it give?
A: active: 17.8 µM

Q: `CC(C)c1ccc(NC(=S)N(C)CCc2ccccn2)cc1` was tested. Which Potency did it give?
A: inactive

Q: `NC(=O)c1cc2ccccc2oc1=NCc1ccccc1` was tested. Which Potency did it give?
A: inactive

Q: Which Potency does the source give for `Cc1cc(C(=O)OCC(=O)N2c3ccccc3NC(=O)C2(C)C)c(C)n1-c1ccccc1` here?
A: inconclusive: 44.7 µM [inhibitor, partial curve]

Q: Which Potency does the source give for `COc1ccc(CCNC(=O)c2ccccc2NC(=O)C2=C(C)OCCS2)c(OC)c1` here?
A: inconclusive: 39.8 µM [inhibitor, full curve, poor fit]

Q: How did the Potency turn out when `COc1ccc(OC)c(C(c2nnnn2C2CCCC2)N2CCN(c3ccccc3)CC2)c1` (stereo not given) was run?
A: active: 50.1 µM

Q: For `O=C(O)c1cc([N+](=O)[O-])ccc1NCCc1ccccc1`, which Potency is on record?
A: inconclusive: 89.1 µM [inhibitor, single point]

Q: With `N#Cc1cc2cc3c(cc2nc1NCCNC(=S)NCCCN1CCOCC1)OCO3` as the molecule, how does the Potency read?
A: inactive

Q: For `CCOc1cc(CNc2ccc(N3CCCCC3)cc2)cc(Br)c1OCC(=O)NC(C)(C)C`, which Potency is on record?
A: active: 11.2 µM

Q: For `CCCc1[nH]nc2c1C(c1ccccc1OC)C(C#N)=C(N)O2` (stereo not given), which Potency is on record?
A: inactive

Q: `O=S(=O)(NCc1ccccn1)c1cc(Cl)ccc1Cl` was tested. Which Potency did it give?
A: inactive

Q: For `S=C(Nc1cccc(Cl)c1)Nc1cccc2cnccc12`, which Potency is on record?
A: inconclusive: 79.4 µM [inhibitor, partial curve]

Q: `O=C(Oc1cccc2cccnc12)c1ccco1` was tested. Which Potency did it give?
A: active: 70.8 µM

Q: Which Potency does the source give for `Cc1cc(O)c(C(c2ccccc2)N2CCN(c3ccccc3)CC2)c(=O)n1Cc1ccco1` (stereo not given) here?
A: inactive

Q: With `CN1CCN(C(=O)c2ccc(CNS(=O)(=O)c3ccc(F)c(Cl)c3)cc2)CC1` as the molecule, how does the Potency read?
A: inactive

Q: For `CC(=O)Oc1ccc(C(=O)Nc2nnc(C)s2)cc1`, which Potency is on record?
A: inactive

Q: With `CC(NC(=O)c1ccco1)C(c1cccs1)N1CCN(c2ccc(F)cc2)CC1` (stereo not given) as the molecule, how does the Potency read?
A: active: 50.1 µM

Q: `O=C1c2ccc3c4c(ccc(c24)C(=O)N1NC(=O)C(F)(F)F)CC3` was tested. Which Potency did it give?
A: inconclusive: 89.1 µM [inhibitor, single point]

Q: For `O=C(Cn1ncc2c3ccccc3n(Cc3cccc(Cl)c3)c2c1=O)NCCCc1ccccc1`, which Potency is on record?
A: inconclusive: 70.8 µM [inhibitor, single point]

Q: How did the Potency turn out when `Cc1ccc(/C=N/NC(=O)c2nnn(-c3nonc3N)c2C(C)C)s1` was run?
A: inactive

Q: `Cc1cc(C)n(C(C)CC(=O)Nc2cccc(C#N)c2)n1` (stereo not given) was tested. Which Potency did it give?
A: inactive

Q: `CNc1csc(C)c(C)c1=O` was tested. Which Potency did it give?
A: inconclusive: 100 µM [inhibitor, single point]

Q: `COC(=O)c1cc(NC(=S)NC(=O)c2ccccc2)ccc1N1CCOCC1` was tested. Which Potency did it give?
A: inconclusive: 50.1 µM [inhibitor, partial curve]

Q: `O=C(CN1C(=O)N/C(=C\c2ccccc2OCc2ccc(C(=O)O)cc2)C1=O)Nc1ccc(F)cc1` was tested. Which Potency did it give?
A: active: 70.8 µM

Q: For `CCOC(=O)c1ccc(NC(=O)CC2C(=O)N(c3cccc(OC)c3)C(=O)N2Cc2cccnc2)cc1` (stereo not given), which Potency is on record?
A: inactive

Q: How did the Potency turn out when `CSCC(=O)NS(=O)(=O)c1ccc(C)cc1` was run?
A: inconclusive: 100 µM [inhibitor, partial curve]

Q: `O=C(c1cc([N+](=O)[O-])ccc1Cl)N1CCN(c2ccccn2)CC1` was tested. Which Potency did it give?
A: inconclusive: 79.4 µM [inhibitor, single point]

Q: Which Potency does the source give for `CCN(CC)c1ccc(NS(=O)(=O)c2cc(-c3onc(C)c3C)ccc2OC)c(C)c1` here?
A: inactive

Q: For `CN1/C(=C/C2CC(=O)N(c3cccc4ccccc34)C2=O)C(C)(C)c2ccccc21` (stereo not given), which Potency is on record?
A: inconclusive: 89.1 µM [inhibitor, single point]

Q: How did the Potency turn out when `O=C(CSc1nc2ccccc2s1)NC(=O)NCc1ccco1` was run?
A: inconclusive: 89.1 µM [inhibitor, single point]

Q: `CC1=NN(C2=NS(=O)(=O)c3ccccc32)C(C)(O)C1` (stereo not given) was tested. Which Potency did it give?
A: inactive

Q: How did the Potency turn out when `Cc1ccc(Cn2c(N3CCN(C)CC3)nc3c2c(=O)[nH]c(=O)n3C)cc1` was run?
A: inconclusive: 89.1 µM [inhibitor, single point]

Q: How did the Potency turn out when `COc1ccc2c(C)c(CCC(=O)NCCc3ccc(OC)c(OC)c3)c(=O)oc2c1` was run?
A: inactive

Q: Which Potency does the source give for `COc1ccc(C(=O)N/C(=C\c2cn(C)c3ccccc23)C(=O)NCCN2CCOCC2)cc1OC` here?
A: inconclusive: 79.4 µM [inhibitor, single point]

Q: Which Potency does the source give for `C=CCn1cccc(C(=O)Nc2ccc(C)c(C)c2)c1=O` here?
A: inactive

Q: With `CC(C)(C)NC(=O)C(c1c[nH]c2ccccc12)N(C(=O)Cn1nnc(-c2ccc(F)cc2)n1)c1cccc(O)c1` (stereo not given) as the molecule, how does the Potency read?
A: inconclusive: 79.4 µM [inhibitor, single point]

Q: With `C=C(C)COc1ccc(-c2nc(N)ncc2-c2ccc(Cl)cc2)c(O)c1` as the molecule, how does the Potency read?
A: inconclusive: 50.1 µM [inhibitor, partial curve]

Q: With `Cc1cc(S(=O)(=O)NCCCN2CCOCC2)c(C)cc1Cl` as the molecule, how does the Potency read?
A: inactive

Q: With `O=C(O)c1cc(=O)n(Cc2ccccc2)c(=O)[nH]1` as the molecule, how does the Potency read?
A: inconclusive: 89.1 µM [inhibitor, single point]

Q: How did the Potency turn out when `CCCN(C(=O)Cc1nc(-c2ccc(OC)cc2)no1)c1ccccc1C` was run?
A: inactive

Q: Which Potency does the source give for `COC(=O)CCCCC1SCC2NC(=O)NC21O` (stereo not given) here?
A: active: 2.24 µM

Q: Which Potency does the source give for `CCC(Oc1ccccc1)C(=O)Nc1ccccc1N1CCCC1` (stereo not given) here?
A: inconclusive: 31.6 µM [inhibitor, partial curve]

Q: How did the Potency turn out when `Cn1c(SCC(=O)Nc2ccc(Cl)cc2F)nnc1-c1ccco1` was run?
A: inactive

Q: For `CC(C)c1ccc(-c2noc(SCC(=O)N3CCCCC3C)n2)cc1` (stereo not given), which Potency is on record?
A: inactive

Q: For `N#C/C(=C\c1ccc(O)c(O)c1)C(=O)N1CCc2ccccc21`, which Potency is on record?
A: active: 8.91 µM

Q: For `NC(=O)c1c(-c2cccs2)csc1N`, which Potency is on record?
A: inconclusive: 70.8 µM [inhibitor, single point]

Q: `O=C(NC(NCc1ccccn1)(C(F)(F)F)C(F)(F)F)c1ccco1` was tested. Which Potency did it give?
A: active: 50.1 µM

Q: With `Cc1ccccc1Nc1c(N)c(=O)oc2ccccc12` as the molecule, how does the Potency read?
A: inconclusive: 50.1 µM [inhibitor, partial curve]

Q: With `COc1ccc(C(c2c(NC(=O)c3ccccc3)sc(C)c2C)N2CCN(CCO)CC2)cc1` (stereo not given) as the molecule, how does the Potency read?
A: inconclusive: 44.7 µM [inhibitor, partial curve]

Q: `CCCN1C(=O)/C(=C\C=C2/Sc3ccccc3N2CC)SC1=S` was tested. Which Potency did it give?
A: inconclusive: 3.55 µM [inhibitor, full curve, poor fit]

Q: Which Potency does the source give for `CCOc1ccc(CNCc2c(C(=O)O)c(C)n(Cc3ccc(C)cc3)c2C)cc1` here?
A: inactive

Q: How did the Potency turn out when `CN1c2ccccc2C(C)(C)C12CCCC(=O)N2` (stereo not given) was run?
A: active: 50.1 µM

Q: Which Potency does the source give for `Cc1cc(C)cc(NC(=O)CN2CCCN(S(=O)(=O)c3ccc(Br)s3)CC2)c1` here?
A: inactive

Q: For `O=S(=O)(c1ccc(F)cc1)N1CN(Cc2ccco2)c2nc3ccccc3nc21`, which Potency is on record?
A: inconclusive: 5.62 µM [inhibitor, full curve]

Q: With `COC(=O)c1cc(OC)c(OC)cc1NC(=O)Cc1cccs1` as the molecule, how does the Potency read?
A: inconclusive: 50.1 µM [inhibitor, partial curve]

Q: Which Potency does the source give for `Cc1cc(-c2n[nH]c(=S)n2/N=C/c2cc([N+](=O)[O-])ccc2Cl)n[nH]1` here?
A: inconclusive: 79.4 µM [inhibitor, single point]

Q: How did the Potency turn out when `COc1cccc2sc(NC(=O)c3ccc(S(=O)(=O)N4CCC(C)CC4)cc3)nc12` was run?
A: inconclusive: 39.8 µM [inhibitor, single point]

Q: `CCN1CCN(CCCNC(=O)CS(=O)(=O)Cc2nc(-c3ccccc3C)oc2C)CC1` was tested. Which Potency did it give?
A: inconclusive: 79.4 µM [inhibitor, single point]

Q: How did the Potency turn out when `O=C(c1ccccc1[N+](=O)[O-])N(CCc1ccccc1)Cc1ccccc1` was run?
A: inconclusive: 35.5 µM [inhibitor, partial curve]

Q: With `COc1ccc(C(CCN2CCCCC2)c2c(OC)cc(OC)c3c(-c4ccccc4)cc(=O)oc23)cc1` (stereo not given) as the molecule, how does the Potency read?
A: inactive

Q: Which Potency does the source give for `O=C(N[C@@H](Cc1ccccc1)C(=O)N1CCC2(CC1)NCCc1[nH]cnc12)c1cccc(F)c1` here?
A: inconclusive: 89.1 µM [inhibitor, single point]
